# Measurements reported in the supplement of paper PMC4166925.
# ± gives the standard deviation of the averaged measurements. Over roughly 33,000 sequences, “E-score (dimensionless, -0.5 to 0.5)” has its median near -0.049; the highest 2% begin near 0.37. The list shows a part of the results.
# System: T1, PmTbr T-box DNA-binding domain (GST fusion)
# T1 sequence: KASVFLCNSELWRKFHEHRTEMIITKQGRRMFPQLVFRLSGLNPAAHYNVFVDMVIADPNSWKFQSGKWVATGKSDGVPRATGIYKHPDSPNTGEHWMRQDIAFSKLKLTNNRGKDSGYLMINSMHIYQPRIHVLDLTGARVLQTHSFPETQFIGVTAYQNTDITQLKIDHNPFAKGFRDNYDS
# Test: PBM E-score of 8-mer (E-score (dimensionless, -0.5 to 0.5)); Tbr is Tbrain of the sea star Patiria miniata (Pm) or the sea urchin Strongylocentrotus purpuratus (Sp); higher = stronger binding preference; most listed sequences are background and not binding sites
# Conditions: the construct has about 5 more residues each side
# Description: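 Universal protein-binding microarray (Agilent AMADID 016060, 60-bp probes with a 35-bp variable region) incubated with 200 nM GST-fused Patiria miniata Tbr T-box DNA-binding domain (residues 272-466) in PBS pH 7.5. Scored for every ungapped 8-mer (given with its reverse complement) by the Universal PBM Analysis Suite as E-score (modified Wilcoxon-Mann-Whitney enrichment, range -0.5 to 0.5; >0.45 counts as bound) and Z-score of median probe intensity. Two replicate arrays (datasets 1 and 2).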
row,Sequence,PBM E-score of 8-mer
1,CAATCAGA,-0.157 ± 0.01
2,CACACTGG,0.156 ± 0.039
3,TGTAGTAA,-0.169 ± 0.022
4,AATTGAAA,-0.311 ± 0.028
5,CATCATTC,-0.0552 ± 0.075
6,ATGTGAAG,0.142 ± 0.035
7,GATAATCA,0.0401 ± 0.032
8,CACTGAGG,0.0486 ± 0.064
9,ATTCTGAC,0.122 ± 0.042
10,CCAGAATC,-0.0577 ± 0.0096
11,GCTCTAAC,0.0585 ± 0.0059
12,CAGAAGTA,-0.223 ± 0.0053
13,CTCGGCTC,-0.036 ± 0.046
14,GCAGCCAA,0.0542 ± 0.051
15,CATGGGGC,-0.268 ± 0.11
16,ATGAGTGA,0.0877 ± 0.014
17,AGGTAAGC,-0.258 ± 0.036
18,TCAACCCA,-0.169 ± 0.013
19,CCAGCCGG,-0.000265 ± 0.042
20,TCAGTGGA,-0.213 ± 0.02
21,ACAAACGA,0.0104 ± 0.028
22,TCAAAAAA,-0.181 ± 0.07
23,AGTGATAG,0.23 ± 0.018
24,TGCACGAA,-0.109 ± 0.05
25,ACTGTTAT,0.0989 ± 0.046

row,Sequence,PBM E-score of 8-mer
1,AAGTAACT,0.112 ± 0.057
2,ATCTGCAT,-0.08088 ± 0.00077
3,GCCTCACA,0.224 ± 0.031
4,ATCGACCG,-0.064 ± 0.018
5,CGAGTTGC,0.135 ± 0.035
6,CGAAATCA,0.131 ± 0.011
7,CGAGAAGA,0.0423 ± 0.037
8,AAGGCGAT,0.0522 ± 0.036
9,CTGGGCGA,-0.0186 ± 0.043
10,ATCGCGAA,0.335 ± 0.046
11,GCCTTGAC,-0.0059 ± 0.00044
12,AAGTAACA,0.224 ± 0.08
13,AAAAAGGT,0.0924 ± 0.057
14,ACTACGAG,0.0557 ± 0.059
15,CCGCTGAA,-0.279 ± 0.04
16,CCTGCTCA,-0.197 ± 0.026
17,AATCGCAT,0.0479 ± 0.038
18,ATTGAAGC,-0.0742 ± 0.045
19,CCAACACA,0.241 ± 0.023
20,TATTTGAA,-0.163 ± 0.018
21,AAGGTCTA,-0.334 ± 0.059
22,ACTCATAC,0.0906 ± 0.014
23,CTTAGACA,0.0724 ± 0.066
24,CTAGTAGC,-0.113 ± 0.066
25,CCAGCGGC,0.121 ± 0.067

row,Sequence,PBM E-score of 8-mer
1,GCCCAGAA,-0.0796 ± 0.018
2,CCTTAGCG,0.198 ± 0.062
3,GCGCGCAC,0.155 ± 0.026
4,CGGTGACG,0.179 ± 0.047
5,CTCATCTC,-0.018 ± 0.016
6,ATAACTAT,-0.00859 ± 0.12
7,TACTAATA,-0.00424 ± 0.037
8,GGCATGAC,0.133 ± 0.049
9,AATGCGTG,0.194 ± 0.024
10,AATCCGGA,-0.0907 ± 0.031
11,CGCCTCAA,0.0195 ± 0.0091
12,CACTTTTA,0.203 ± 0.003
13,CGTGTGTA,0.00111 ± 0.014
14,AACGCGAA,0.186 ± 0.0084
15,GTCGAGTA,0.00721 ± 0.0094
16,GTTAGACA,0.0496 ± 0.014
17,AGTGAGTA,0.0722 ± 0.026
18,ACGCCGCC,0.0426 ± 0.041
19,GGCTCTTA,-0.264 ± 0.028
20,AACCTCAA,-0.113 ± 0.028
21,CATATGCG,0.0977 ± 0.0099
22,GTCCGGTA,-0.329 ± 0.058
23,ATTTACCG,-0.215 ± 0.0027
24,CGTATTTC,-0.139 ± 0.029
25,ATGGATCC,-0.0796 ± 0.058

row,Sequence,PBM E-score of 8-mer
1,GATTCGAC,-0.031 ± 0.096
2,ATGGGGTA,-0.219 ± 0.1
3,TCGGAAGA,-0.0733 ± 0.074
4,CGAGGACG,-0.0441 ± 0.0044
5,GTACCAAA,-0.168 ± 0.069
6,GGGTTGTA,-0.0196 ± 0.042
7,TGCGCGAA,0.307 ± 0.017
8,TCCATCGA,-0.121 ± 0.022
9,GGTAGAGA,-0.124 ± 0.0055
10,AAATCGCG,0.349 ± 0.0082
11,TCTACTAA,0.0659 ± 0.0013
12,CAATACCA,0.0795 ± 0.018
13,ACGGAGCA,-0.0774 ± 0.0075
14,ACTTTACT,-0.111 ± 0.12
15,CAACTGGC,0.211 ± 0.037
16,CCTCCACC,-0.0543 ± 0.035
17,ACGATCAA,-0.162 ± 0.013
18,GAGATCGA,0.00632 ± 0.01
19,GCTGACCC,-0.159 ± 0.14
20,GCGGCGAA,-0.0974 ± 0.1
21,GGGCTTAA,-0.183 ± 0.044
22,TAGTAGAA,-0.194 ± 0.044
23,ATTGTAGA,-0.0842 ± 0.022
24,ATACAGTG,-0.0789 ± 0.064
25,ACTTGGTA,0.0808 ± 0.016

row,Sequence,PBM E-score of 8-mer
1,CTGGGGAC,0.121 ± 0.066
2,GGGGTACC,-0.183 ± 0.033
3,AGTTATTC,-0.195 ± 0.0077
4,AAGCCTTA,-0.276 ± 0.028
5,GTCGTGCA,0.0573 ± 0.028
6,AAAGACTG,-0.228 ± 0.065
7,AGTGGTTA,0.00971 ± 0.076
8,AGGGTAGG,-0.0131 ± 0.00042
9,CCATACGC,-0.137 ± 0.034
10,ACCTGCTC,0.00244 ± 0.013
11,CCCCACTC,-0.0572 ± 0.09
12,AGCTGGCG,0.119 ± 0.021
13,TAGAGTGA,0.178 ± 0.012
14,CATGTAAC,-0.0898 ± 0.0084
15,AGACTAAT,-0.251 ± 0.079
16,ACCAGATA,-0.156 ± 0.054
17,CACCAATA,0.224 ± 0.056
18,GAGCCGTA,-0.0341 ± 0.054
19,GCAATTCA,0.0777 ± 0.042
20,CGCACGTC,0.354 ± 0.02
21,CATTTGGG,-0.2614 ± 0.002
22,AAGTCTAT,-0.309 ± 0.089
23,CAAAGGAA,-0.165 ± 0.013
24,CGCTATTA,0.159 ± 0.054
25,AGGTATCG,0.123 ± 0.032

row,Sequence,PBM E-score of 8-mer
1,CTGGGGTC,-0.208 ± 0.033
2,GACATCTC,-0.14 ± 0.016
3,AAGAGGTA,-0.158 ± 0.021
4,TATGCGAA,0.157 ± 0.0088
5,CGTTGTAG,-0.00943 ± 0.05
6,AACGCTTA,0.166 ± 0.021
7,CTTAGGCA,-0.0866 ± 0.011
8,ACCGTCAC,0.288 ± 0.0081
9,CTTGGCTA,-0.0844 ± 0.048
10,CCACCCTC,0.0601 ± 0.017
11,CCCAGGAA,-0.142 ± 0.023
12,GAAGACGA,-0.305 ± 0.0095
13,ACGTTGCA,-0.145 ± 0.0049
14,ATTCGAAT,-0.0925 ± 0.017
15,ATGCCGAA,-0.199 ± 0.021
16,ACTATTTG,-0.139 ± 0.031
17,AGTGGACG,-0.104 ± 0.032
18,GACCCCGC,-0.216 ± 0.0024
19,AACCTGTA,-0.252 ± 0.046
20,GTAACTAC,-0.097 ± 0.15
21,AAATCTCT,0.0435 ± 0.048
22,CGGAGGCA,-0.298 ± 0.015
23,CGACAGAC,0.139 ± 0.032
24,CGAAGCCA,-0.104 ± 0.016
25,AGGTACAA,-0.0949 ± 0.057

row,Sequence,PBM E-score of 8-mer
1,ATTCCGAC,0.0363 ± 0.035
2,AACCACAA,-0.0691 ± 0.031
3,GCGCCTTA,0.277 ± 0.0035
4,AGCAATTA,-0.152 ± 0.0064
5,AATGACTG,-0.142 ± 0.015
6,AACTGAGG,0.0786 ± 0.069
7,GGTGAACA,0.00576 ± 0.0094
8,ACGTTCCA,-0.0197 ± 0.034
9,ACGCAATC,-0.12 ± 0.013
10,CCTGGACG,0.0437 ± 0.0018
11,AACTAGGT,-0.0895 ± 0.044
12,CTATCAGC,0.117 ± 0.012
13,CCATTGAA,-0.102 ± 0.034
14,GGATCGTA,-0.244 ± 0.076
15,GTCGGCTA,-0.0946 ± 0.064
16,GAGGGATA,-0.128 ± 0.13
17,CTAACCCC,-0.0519 ± 0.009
18,GGATCTAA,-0.118 ± 0.035
19,ATTACGTG,-0.12 ± 0.019
20,CGCTTACG,0.0984 ± 0.0067
21,ACACTCCA,0.24 ± 0.068
22,AGGCGTGG,0.265 ± 0.016
